Some of the results follow. At the low end of the ranking the order means little.
Target: GST-SBP-SLBP (stem-loop binding protein) (UniProt Q14493)
Assay: targeted RNA Bind-n-Seq;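 further: DESeq read counts versus GST-SBP nonspecific binding control pulldown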
Settings: RBNS binding buffer: 25 mM Tris pH 7.5, 150 mM KCl, 3 mM MgCl2, 0.1% Tween, 0.5 mg/mL BSA, 1 mM DTT; 27 nM protein, 750 pM RNA pool; temperature not stated; high values mean tight binding

Sequence | binding signal (log2 fold change)
GGUCACGUCUCAAUCAACUCAUCAGAGGGGGGGAAAACCCCUUUGCCCUCAAAUUCAACAGCUCGCAGUCAAG | 0.00202
GGUCACGUCUCAAUCAACUCAUCCCCAGGAGUUUUCUCCUGCAAUUUCAACAGCUCGCAGUCAAG | 0.122
GGUCACGUCUCAAUCAACUCUACUUCAGGAGUUUCCUCCUGUAUAUUCAACAGCUCGCAGUCAAG | -0.121
GGUCACGUCUCAAUCAACUCAAACGAGGGGGGGAAAACCCCUUUACCCUCAACAUCAACAGCUCGCAGUCAAG | -0.0352
GGUCACGUCUCAAUCAACUCUUCGCCAGGAGUUUUCUCCUGCUUAUUCAACAGCUCGCAGUCAAG | 0.203
GGUCACGUCUCAAUCAACUCAUCCCCAGGAGUUUCCUCCUGUUUUCUCAACAGCUCGCAGUCAAG | 0.142
GGUCACGUCUCAAUCAACUCUAUUUCCAGGGAAACCCCUGGUAUAUUCAACAGCUCGCAGUCAAG | -0.0331
GGUCACGUCUCAAUCAACUCAAUCCCCAGGGAAAACCCUGGUUAAUUCAACAGCUCGCAGUCAAG | 0.231
GGUCACGUCUCAAUCAACUCUUUCCCCAGGGAAAUCCCUGGUUAUCUCAACAGCUCGCAGUCAAG | -0.0411
GGUCACGUCUCAAUCAACUCUUUCCCAGGAGUUUUCUCCUGCUUAUUCAACAGCUCGCAGUCAAG | 0.0673
GGUCACGUCUCAAUCAACUCAAACGAGGGGGGGAAAACCCCUUUACCCUCACAUUCAACAGCUCGCAGUCAAG | -0.0422
GGUCACGUCUCAAUCAACUCAACGCCAGGAGUUUCCUCCUGUAUUUUCAACAGCUCGCAGUCAAG | 0.0289
GGUCACGUCUCAAUCAACUCAUUCCCCAGGGAAAGCCCUGGUUUUUUCAACAGCUCGCAGUCAAG | -0.0834
GGUCACGUCUCAAUCAACUCAAUGGCAGGAGUUUACUCCUGGAAUCUCAACAGCUCGCAGUCAAG | -0.00586
GGUCACGUCUCAAUCAACUCAUCCUCCAGGGAAAACCCUGGUAUUCUCAACAGCUCGCAGUCAAG | -0.0695
GGUCACGUCUCAAUCAACUCUUUUUCCAGGGAAAACCCUGGUUAAUUCAACAGCUCGCAGUCAAG | 0.015
GGUCACGUCUCAAUCAACUCAAUUCCAGGAGUUUACUCCUGUAUUCUCAACAGCUCGCAGUCAAG | -0.0534
GGUCACGUCUCAAUCAACUCAACUUCCAGGGAAACCCCUGGUUUAUUCAACAGCUCGCAGUCAAG | 0.146
GGUCACGUCUCAAUCAACUCCAAAGAGGGGGGGAAAACCCCUUUGCCCUCAAACUCAACAGCUCGCAGUCAAG | 0.0497
GGUCACGUCUCAAUCAACUCAUCCCCAGGAGUUUACUCCUGUUAUCUCAACAGCUCGCAGUCAAG | -0.00656
GGUCACGUCUCAAUCAACUCUAAGGAGGGGGGGAAAACCCCUUUACCCUCAAAAUCAACAGCUCGCAGUCAAG | -0.039
GGUCACGUCUCAAUCAACUCUUUCCCCAGGGAAACCCCUGGCUAUUUCAACAGCUCGCAGUCAAG | -0.0706
GGUCACGUCUCAAUCAACUCUAUCCCAGGAGUUUCCUCCUGCAAACUCAACAGCUCGCAGUCAAG | 0.268
GGUCACGUCUCAAUCAACUCUUUAGAGGGGGGGAAAACCCCUUUACCCUCCGUAUCAACAGCUCGCAGUCAAG | 0.131
GGUCACGUCUCAAUCAACUCAACUCCAGGAGUUUACUCCUGCAUUUUCAACAGCUCGCAGUCAAG | -0.0964

Sequence | binding signal (log2 fold change)
GGUCACGUCUCAAUCAACUCUAUCUCCAGGGAAAUCCCUGGUAUAUUCAACAGCUCGCAGUCAAG | -0.225
GGUCACGUCUCAAUCAACUCUCUAGAGGGGGGGAAAACCCCUUUGCCCUCAUCAUCAACAGCUCGCAGUCAAG | -0.307
GGUCACGUCUCAAUCAACUCAUCCCCCAGGGAAAUCCCUGGUAUUUUCAACAGCUCGCAGUCAAG | -0.0866
GGUCACGUCUCAAUCAACUCAUCUUCAGGAGUUUUCUCCUGUUUAGUCAACAGCUCGCAGUCAAG | 0.209
GGUCACGUCUCAAUCAACUCUAUUCCAGGAGUUUACUCCUGCAUUUUCAACAGCUCGCAGUCAAG | 0.131
GGUCACGUCUCAAUCAACUCAGUUUCAGGAGUUUACUCCUGCUAUCUCAACAGCUCGCAGUCAAG | 0.111
GGUCACGUCUCAAUCAACUCAGUUUCAGGAGUUUUCUCCUGUUUAUUCAACAGCUCGCAGUCAAG | 0.0522
GGUCACGUCUCAAUCAACUCUAUCUCCAGGGAAAGCCCUGGCAAUCUCAACAGCUCGCAGUCAAG | 0.0282
GGUCACGUCUCAAUCAACUCCAUAGAGGGGGGGAAAACCCCUUUGCCCUCGUCAUCAACAGCUCGCAGUCAAG | 0.00701
GGUCACGUCUCAAUCAACUCUUUCGCCAGGGAAAACCCUGGGUAUCUCAACAGCUCGCAGUCAAG | -0.21
GGUCACGUCUCAAUCAACUCAUUCCCAGGAGUUUGCUCCUGCUUUUUCAACAGCUCGCAGUCAAG | 0.176
GGUCACGUCUCAAUCAACUCAUCGUCCAGGGAAAACCCUGGUUAUUUCAACAGCUCGCAGUCAAG | -0.186
GGUCACGUCUCAAUCAACUCAUCUUCCAGGGAAAACCCUGGUAUUCUCAACAGCUCGCAGUCAAG | 0.229
GGUCACGUCUCAAUCAACUCAAUCGAGGGGGGGAAAACCCCUUUACCCUCUCAAUCAACAGCUCGCAGUCAAG | -0.242
GGUCACGUCUCAAUCAACUCAUUCCCCAGGGAAACCCCUGGUUAACUCAACAGCUCGCAGUCAAG | 0.0338
GGUCACGUCUCAAUCAACUCAUCUUCCAGGGAAACCCCUGGCUUAUUCAACAGCUCGCAGUCAAG | 0.136
GGUCACGUCUCAAUCAACUCUAUCUCCAGGGAAAACCCUGGUUUACUCAACAGCUCGCAGUCAAG | 0.012
GGUCACGUCUCAAUCAACUCUAUUCCCAGGGAAAACCCUGGCUUUUUCAACAGCUCGCAGUCAAG | 0.126
GGUCACGUCUCAAUCAACUCUUCUUCAGGAGUUUCCUCCUGCUUUCUCAACAGCUCGCAGUCAAG | 0.0767
GGUCACGUCUCAAUCAACUCAUUUUCAGGAGUUUGCUCCUGCAAUCUCAACAGCUCGCAGUCAAG | -0.0115
GGUCACGUCUCAAUCAACUCAAUCCCCAGGGAAAACCCUGGUAUUUUCAACAGCUCGCAGUCAAG | -0.245
GGUCACGUCUCAAUCAACUCAACUCCCAGGGAAAUCCCUGGUUAUCUCAACAGCUCGCAGUCAAG | 0.334
GGUCACGUCUCAAUCAACUCUUUUUCCAGGGAAAACCCUGGUUUUCUCAACAGCUCGCAGUCAAG | 0.169
GGUCACGUCUCAAUCAACUCUAUCCCAGGAGUUUCCUCCUGUAAAUUCAACAGCUCGCAGUCAAG | -0.146
GGUCACGUCUCAAUCAACUCUUUUUCAGGAGUUUACUCCUGUAUUUUCAACAGCUCGCAGUCAAG | 0.0314

Sequence | binding signal (log2 fold change)
GGUCACGUCUCAAUCAACUCAUCUCCAGGAGUUUCCUCCUGUUUAGUCAACAGCUCGCAGUCAAG | -0.0683
GGUCACGUCUCAAUCAACUCAUUUUCCAGGGAAAGCCCUGGUUAUCUCAACAGCUCGCAGUCAAG | 0.0553
GGUCACGUCUCAAUCAACUCAAUCCCCAGGGAAACCCCUGGUAUUUUCAACAGCUCGCAGUCAAG | -0.45
GGUCACGUCUCAAUCAACUCAAUUUCAGGAGUUUACUCCUGCUUUUUCAACAGCUCGCAGUCAAG | -0.13
GGUCACGUCUCAAUCAACUCACAAGAGGGGGGGAAAACCCCUUUACCCUCAUUAUCAACAGCUCGCAGUCAAG | -0.0578
GGUCACGUCUCAAUCAACUCUAAAGAGGGGGGGAAAACCCCUUUACCCUCCGCAUCAACAGCUCGCAGUCAAG | -0.13
GGUCACGUCUCAAUCAACUCUAUCUCAGGAGUUUUCUCCUGCAUACUCAACAGCUCGCAGUCAAG | -0.0729
GGUCACGUCUCAAUCAACUCAAUCCCCAGGGAAAACCCUGGCUAUUUCAACAGCUCGCAGUCAAG | 0.338
GGUCACGUCUCAAUCAACUCUUCCUCCAGGGAAAGCCCUGGCUAUCUCAACAGCUCGCAGUCAAG | -0.147
GGUCACGUCUCAAUCAACUCAAUUCCAGGAGUUUACUCCUGCUUUCUCAACAGCUCGCAGUCAAG | -0.152
GGUCACGUCUCAAUCAACUCAUCGCCAGGAGUUUACUCCUGUUAUCUCAACAGCUCGCAGUCAAG | 0.0944
GGUCACGUCUCAAUCAACUCAAUAGAGGGGGGGAAAACCCCUUUACCCUCAUCAUCAACAGCUCGCAGUCAAG | 0.0863
GGUCACGUCUCAAUCAACUCAAACGAGGGGGGGAAAACCCCUUUACCCUCCACAUCAACAGCUCGCAGUCAAG | -0.129
GGUCACGUCUCAAUCAACUCUCACGAGGGGGGGAAAACCCCUUUACCCUCUUACUCAACAGCUCGCAGUCAAG | 0.346
GGUCACGUCUCAAUCAACUCUUCCCCCAGGGAAAGCCCUGGCAAUUUCAACAGCUCGCAGUCAAG | 0.0536
GGUCACGUCUCAAUCAACUCUAUCCCCAGGGAAAUCCCUGGCUUAUUCAACAGCUCGCAGUCAAG | -0.323
GGUCACGUCUCAAUCAACUCUUCGUCCAGGGAAACCCCUGGUUAUCUCAACAGCUCGCAGUCAAG | -0.418
GGUCACGUCUCAAUCAACUCUUCAGAGGGGGGGAAAACCCCUUUGCCCUCAUAAUCAACAGCUCGCAGUCAAG | -0.144
GGUCACGUCUCAAUCAACUCUAUCGAGGGGGGGAAAACCCCUUUACCCUCUUUUUCAACAGCUCGCAGUCAAG | -0.0455
GGUCACGUCUCAAUCAACUCCAACGAGGGGGGGAAAACCCCUUUACCCUCACCAUCAACAGCUCGCAGUCAAG | -0.229
GGUCACGUCUCAAUCAACUCAAUUUCAGGAGUUUCCUCCUGCUAUUUCAACAGCUCGCAGUCAAG | 0.0302
GGUCACGUCUCAAUCAACUCAACUCCAGGAGUUUGCUCCUGUAUAUUCAACAGCUCGCAGUCAAG | -0.0611
GGUCACGUCUCAAUCAACUCUCCCGAGGGGGGGAAAACCCCUUUACCCUCAACCUCAACAGCUCGCAGUCAAG | -0.397
GGUCACGUCUCAAUCAACUCUAUCCCAGGAGUUUCCUCCUGUUUAUUCAACAGCUCGCAGUCAAG | -0.0243
